# Measurements taken from PubChem BioAssay AID651820 (National Center for Advancing Translational Sciences (NCATS), 2012).
# “And” between values parts separate entries of the source, which are not always exact repeats. Equal values may be shown once. Among all 340,000 compounds or so, about 12,000 (3.5%) were called active. This list was built around the results that the source calls inconclusive (neither active nor inactive); the mix of calls is not that of the screen. Calls come from the whole dose curve; as a rule, active = well fitted inhibition curve with a large enough effect; inconclusive = small, poorly fitted or top-dose-only effect, or another doubt; inactive = no such curve, though single readings can be large or run the other way. Potencies of inconclusive entries are doubtful fits and often do not repeat.
# Experiment: qHTS Assay for Inhibitors of Hepatitis C Virus (HCV)
# Conditions: Huh7.5.1 HCVcc-Cre (HCVcc is cell-culture hepatitis C virus) infection, luciferase reporter, 44 h; series mostly up to 41.8 µM
# Procedure, shortened: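 Luciferase read-out (15 sec integration) after a 15 min room-temperature substrate step quantifies HCVcc-Cre infection. Cells, 1,000 per well, had compound added 4 h post-plating, then virus at ~0.5 moi, and were cultured 44 h.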
# Potency is the fitted concentration of half-maximal effect; tags give direction and shape of the fitted curve.
row,SMILES,Potency
1,CN1CCCN(C(=O)c2ccc(Cl)s2)CC1,inactive
2,COc1ccc(N2CCN(C(=O)CSc3nnc(-c4cc5ccccc5cc4O)n3C)CC2)cc1,"inconclusive: 14.1 µM [inhibitor, partial curve, poor fit]"
3,COc1ccc(C(=O)CC(=O)c2ccc(C)cc2)c(O)c1,"inconclusive: 10 µM [inhibitor, partial curve, poor fit]"
4,O=S(=O)(CCN1CCN(C(c2ccccc2)c2ccccc2)CC1)C(F)(F)F,"inconclusive: 1.78 µM [inhibitor, full curve]"
5,Cc1ccccc1NC(=O)CSc1nnc2ccc(-c3cccnc3)nn12,"inconclusive: 22.4 µM [inhibitor, single point]"
6,CCc1ccc(CN(C)C(=O)CCc2nc3ccccc3n(-c3ccc(OC)cc3)c2=O)cc1,"inconclusive: 22.4 µM [inhibitor, single point]"
7,O=C(COC(=O)c1ccco1)Nc1nc2ccc([N+](=O)[O-])cc2s1,inactive
8,COc1cc(-c2nc3c[n+](CC(=O)c4ccccc4)ccc3n2C)cc(OC)c1OC,inactive
9,CCOC(=O)c1c(-c2ccccc2)oc2ccc(O)c(CN(C)C)c12,inactive
10,CCN(CC)CCC(c1ccc2c(c1)OCO2)c1c(O)cc(OC)cc1OC (centres undefined),inactive
11,COc1cc(/C=N/NC(=O)c2cccnc2)ccc1OS(=O)(=O)c1cc(C)ccc1C,"inconclusive: 3.55 µM [inhibitor, full curve, poor fit]"
12,Cc1ccccc1C(=O)Nn1cnc2ccccc2c1=O,inactive
13,Cn1c(C(=O)NCC2CCCO2)cc2oc3ccccc3c21 (centres undefined),"inconclusive: 10 µM [inhibitor, single point]"
14,CN(C)S(=O)(=O)c1cccc(NC(=O)COC(=O)c2cc(=O)[nH]c(=O)[nH]2)c1,inactive
15,CCN1C/C(=C/c2ccc(OC)c(O)c2)C(=O)/C(=C/c2ccc(OC)c(O)c2)C1,"inconclusive: 22.4 µM [inhibitor, single point]"
16,CCN1CCN(Cc2ccc(NC(=O)c3ccc(C)c(NC(=O)C(=O)c4c[nH]c5ccccc45)c3)cc2C(F)(F)F)CC1,"inconclusive: 5.62 µM [inhibitor, partial curve]"
17,CCOC(=O)CCSc1nc(C)cc(C(F)(F)F)c1C#N,"inconclusive: 28.2 µM [inhibitor, single point]"
18,CN1c2ccccc2N(C)C1(C)c1cccc2ccccc12,"inconclusive: 25.1 µM [inhibitor, single point]"
19,CCCCCN1C2=NCCN2c2ccccc21,inactive
20,O=C(NC1=NCCS1)c1ccccc1,inactive
21,O=C(CSc1nc2ccccc2c(=O)n1-c1ccc(F)c(Cl)c1)Nc1cccc(S(=O)(=O)N2CCOCC2)c1,"inconclusive: 10 µM [inhibitor, partial curve]"
22,Cc1cccc(NC(=O)CCc2nc3sc4c(c3c(=O)[nH]2)CCCC4)c1,inactive
23,N#C/C(=C\c1ccncc1)c1ccccn1,"inconclusive: 31.6 µM [inhibitor, single point]"

row,SMILES,Potency
1,Cc1ccc(CNC(=O)c2ccccc2NC(=O)C2=CSCCO2)cc1,"inconclusive: 25.1 µM [inhibitor, partial curve]"
2,O=C1c2cccc3c([N+](=O)[O-])ccc(c23)C(=O)N1c1ccccn1,"inconclusive: 1.78 µM [inhibitor, full curve]"
3,O=C(CSCc1cnn(-c2ccccc2)c1-n1cccc1)NCc1ccc2c(c1)OCO2,"inconclusive: 20 µM [inhibitor, single point] and inconclusive: 11.2 µM [inhibitor, single point]"
4,CC(C)OC(=O)/C(C#N)=C/c1ccc(-c2ccc(SC(F)F)cc2)o1,"inconclusive: 31.6 µM [inhibitor, single point]"
5,COc1ccc(S(=O)(=O)N(CC(=O)N2CCN(c3ccccc3OC)CC2)c2ccccc2)cc1,"inconclusive: 14.1 µM [inhibitor, partial curve]"
6,CCOC(=O)c1c(-c2ccccc2)csc1NC(=S)N(CC)CC,"inconclusive: 31.6 µM [inhibitor, single point]"
7,CCc1ccc(N(C(=O)CNC(=O)c2cccs2)C(C(=O)NC(C)(C)C)c2cc(OC)c(OC)c(OC)c2)cc1 (centres undefined),"inconclusive: 31.6 µM [inhibitor, single point]"
8,Nc1c(NC(=O)CC[n+]2ccccc2)cccc1[N+](=O)[O-],inactive
9,COc1ccc(Cc2nnc(NC(=O)c3ccccc3F)s2)cc1,inactive
10,CNc1nc(SCc2ccccc2)nc(N2CCOCC2)n1,"inconclusive: 31.6 µM [inhibitor, single point]"
11,CC1(C)Cc2nc(-c3ccccc3)nc(SCC(=O)N3CCCC3)c2CO1,"inconclusive: 5.62 µM [inhibitor, single point]"
12,CCCCCC1C(=O)N2C=C(c3ccccc3)c3ccccc3N2C1=O (centres undefined),inactive
13,CCc1ccc(OCC(=O)NC(NC(=S)Nc2ccc(C)cc2C)C(Cl)(Cl)Cl)cc1 (centres undefined),"inconclusive: 31.6 µM [inhibitor, single point]"
14,COc1ccc(Cl)c(NC(=O)Nc2c(C)n(-c3ccccc3)c(=O)n2C)c1,"inconclusive: 8.91 µM [inhibitor, partial curve]"
15,Cc1ccc(-c2oc3ncnc(N)c3c2-c2ccc(C)cc2)cc1,"inconclusive: 0.562 µM [inhibitor, full curve]"
16,COC(=O)c1c(C(=O)OC)c(-c2cccc(Cl)c2)n2c1CS(=O)(=O)C2,inactive
17,CCC(=O)NNc1ncnc2c1cnn2-c1ccccc1,inactive
18,COc1ccc(Br)cc1S(=O)(=O)N1CCN=C1c1ccccc1,inactive
19,O=C(Nc1ccccc1Cl)c1cnccn1,inactive
20,COc1ccccc1/C=C/C1=NC(=C\N(C)C)/C(=O)O1,active: 11.2 µM
21,CCOc1ccccc1C(=O)Nc1nn[nH]n1,active: 3.16 µM
22,O=C(OCc1cc(Cl)ccc1OC(F)F)c1cccnc1,"inconclusive: 31.6 µM [inhibitor, single point]"
23,CCSc1nnc(-c2c[nH]c3ccccc23)o1,"inconclusive: 10 µM [inhibitor, single point]"

row,SMILES,Potency
1,Cc1ccc(-n2nc3c(N4CCC(C(=O)NCCc5ccco5)CC4)nnc(C)c3c2C)cc1,"inconclusive: 3.16 µM [inhibitor, partial curve]"
2,O=C(/C=C/c1ccc(F)cc1)Nc1cc(S(=O)(=O)N2CCOCC2)ccc1N1CCCC1,"inconclusive: 31.6 µM [inhibitor, single point]"
3,Cc1ccc([C@@H]2CC=C(C(=O)O)[C@H](c3cccc(Cl)c3)N2S(=O)(=O)c2ccccc2C)cc1,inactive
4,Cc1ccc2c(c1)=C/C(=C\c1c(O)[nH]c(=S)[nH]c1=O)C(=O)N=2,inactive
5,CN(c1ccccc1)S(=O)(=O)c1cccc(NC(=O)CCNC(=O)c2ccc([N+](=O)[O-])cc2)c1,active: 11.2 µM
6,C#CCOCCOCCOCCNc1nc(N2CCN(C(=O)[C@H]([C@@H](C)CC)n3cc(CCCCN)nn3)CC2)nc(N2CCN(C(=O)[C@H](CCCCN)n3cc(CCCC)nn3)CC2)n1,inactive
7,O=c1[nH]c(N2CCc3ccccc3C2)nc2c1CCC2,"inconclusive: 35.5 µM [inhibitor, single point]"
8,CC(=O)Nc1ccccc1Nc1cc(C#N)c(C#N)cc1[N+](=O)[O-],"inconclusive: 31.6 µM [inhibitor, single point]"
9,CN(C)c1cc2c3ccccc3n(C)c2cc1N,"inconclusive: 31.6 µM [inhibitor, single point]"
10,CN(C)S(=O)(=O)c1cccc(NC(=O)CN2C(=O)NC(Cc3ccccc3)C2=O)c1 (centres undefined),"inconclusive: 20 µM [inhibitor, partial curve, poor fit]"
11,COc1ccc(N2CC(C(=O)Nc3nc4ccc(F)cc4s3)CC2=O)c(OC)c1 (centres undefined),"inconclusive: 25.1 µM [inhibitor, single point]"
12,Cc1ccc(Cl)cc1NC(=S)N(CCCN1CCN(C)CC1)Cc1cccs1,active: 6.31 µM
13,O=c1oc2c3c4c(cc2s1)CCCN4CCC3,"inconclusive: 4.47 µM [inhibitor, partial curve]"
14,COc1cccc(NC(=O)Cn2c3ccccc3c3nc4n(c(=O)c32)CCS4)c1,"inconclusive: 31.6 µM [inhibitor, single point]"
15,O=c1c2ccccc2c(C=Nc2ccc(O)cc2)c(O)n1-c1nccs1,"inconclusive: 22.4 µM [inhibitor, single point]"
16,COc1ccccc1N(CC(=O)NC1CCCCC1)C(=O)c1csnn1,"inconclusive: 1 µM [inhibitor, full curve]"
17,CCc1ccccc1NS(=O)(=O)c1cc(C)ccc1OC,"inconclusive: 7.94 µM [inhibitor, partial curve]"
18,CCc1ccc(/C=N/NC(=O)c2cc(C3CC3)nc3ccc(Br)cc23)s1,active: 22.4 µM
19,COC(=O)c1c(NC(=O)C2c3ccccc3Oc3ccccc32)sc(C)c1C,"inconclusive: 3.16 µM [inhibitor, partial curve, poor fit]"
20,COc1ccc(-c2nnc(SCC(=O)Nc3ncc(C)s3)n2-c2ccccc2)cc1OC,"inconclusive: 14.1 µM [inhibitor, partial curve]"
21,COc1cc(S(=O)(=O)NCC2CCCO2)c(OC)cc1Cl (centres undefined),"inconclusive: 5.01 µM [inhibitor, single point]"
22,COc1ccccc1-n1cc(-c2ccccc2)c2c(=S)nc[nH]c21,inactive
23,Cc1cc(N2CCN(c3cccc(C(F)(F)F)c3)CC2)n2nc(C)nc2n1,"inconclusive: 1.78 µM [inhibitor, partial curve]"
